Laboratory results: PMC10320511
No constants are given. Whether binding was seen depends on the method and setting. Binding seen in cells or lysates may run through a third protein. Some entries that bind do so weakly or less than the wild type. Where a sequence is shown, tags or fusion partners need not be part of it.

Chains of the proteins cited; added tags and fusions are not shown.
UniProt Q01371: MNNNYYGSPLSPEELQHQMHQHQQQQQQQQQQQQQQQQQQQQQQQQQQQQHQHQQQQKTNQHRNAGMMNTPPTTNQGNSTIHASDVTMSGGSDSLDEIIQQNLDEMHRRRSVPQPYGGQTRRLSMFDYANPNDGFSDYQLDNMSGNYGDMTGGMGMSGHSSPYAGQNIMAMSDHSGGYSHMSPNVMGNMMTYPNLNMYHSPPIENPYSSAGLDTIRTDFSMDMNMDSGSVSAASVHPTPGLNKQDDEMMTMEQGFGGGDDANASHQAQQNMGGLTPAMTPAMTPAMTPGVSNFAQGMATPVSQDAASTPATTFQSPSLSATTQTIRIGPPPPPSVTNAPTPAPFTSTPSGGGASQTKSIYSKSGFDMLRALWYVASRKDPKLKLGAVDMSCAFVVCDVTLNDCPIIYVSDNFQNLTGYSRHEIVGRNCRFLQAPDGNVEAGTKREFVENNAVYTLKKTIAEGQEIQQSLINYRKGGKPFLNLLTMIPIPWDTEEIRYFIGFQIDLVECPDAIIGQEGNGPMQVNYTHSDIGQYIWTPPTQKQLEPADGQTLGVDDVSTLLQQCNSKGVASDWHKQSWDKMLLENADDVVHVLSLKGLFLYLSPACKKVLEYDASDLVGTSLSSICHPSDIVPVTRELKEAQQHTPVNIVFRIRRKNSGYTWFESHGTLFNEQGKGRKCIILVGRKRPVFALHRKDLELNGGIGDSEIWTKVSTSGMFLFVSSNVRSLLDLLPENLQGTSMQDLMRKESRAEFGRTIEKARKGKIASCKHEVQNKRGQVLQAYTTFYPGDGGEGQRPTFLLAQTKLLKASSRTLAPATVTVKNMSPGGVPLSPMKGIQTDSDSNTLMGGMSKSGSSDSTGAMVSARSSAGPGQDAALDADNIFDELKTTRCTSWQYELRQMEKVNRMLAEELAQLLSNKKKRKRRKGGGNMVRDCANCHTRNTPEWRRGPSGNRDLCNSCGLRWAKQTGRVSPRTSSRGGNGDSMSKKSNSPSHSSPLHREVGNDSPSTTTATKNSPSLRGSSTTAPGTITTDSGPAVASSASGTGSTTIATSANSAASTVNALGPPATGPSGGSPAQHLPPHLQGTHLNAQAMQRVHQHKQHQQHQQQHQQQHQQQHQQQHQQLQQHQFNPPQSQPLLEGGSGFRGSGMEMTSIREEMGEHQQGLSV

What was measured:
[1] = molecular target: T1, FRQ E801A, D802A, E805A, E809A, V5H6-tagged (Neurospora crassa) (UniProt P19970); test: co-IP; V5H6-tagged FRQ (wild type or mutant) pulled down with V5 agarose from Neurospora lysate (cultures in the light, 25 °C); 50 mM Hepes pH 7.4, 137 mM NaCl, 10% glycerol, 0.4% NP-40; 4 °C, 2 h; Western blot with FRQ, FRH, WC-1 and WC-2 antibodies
T1 sequence: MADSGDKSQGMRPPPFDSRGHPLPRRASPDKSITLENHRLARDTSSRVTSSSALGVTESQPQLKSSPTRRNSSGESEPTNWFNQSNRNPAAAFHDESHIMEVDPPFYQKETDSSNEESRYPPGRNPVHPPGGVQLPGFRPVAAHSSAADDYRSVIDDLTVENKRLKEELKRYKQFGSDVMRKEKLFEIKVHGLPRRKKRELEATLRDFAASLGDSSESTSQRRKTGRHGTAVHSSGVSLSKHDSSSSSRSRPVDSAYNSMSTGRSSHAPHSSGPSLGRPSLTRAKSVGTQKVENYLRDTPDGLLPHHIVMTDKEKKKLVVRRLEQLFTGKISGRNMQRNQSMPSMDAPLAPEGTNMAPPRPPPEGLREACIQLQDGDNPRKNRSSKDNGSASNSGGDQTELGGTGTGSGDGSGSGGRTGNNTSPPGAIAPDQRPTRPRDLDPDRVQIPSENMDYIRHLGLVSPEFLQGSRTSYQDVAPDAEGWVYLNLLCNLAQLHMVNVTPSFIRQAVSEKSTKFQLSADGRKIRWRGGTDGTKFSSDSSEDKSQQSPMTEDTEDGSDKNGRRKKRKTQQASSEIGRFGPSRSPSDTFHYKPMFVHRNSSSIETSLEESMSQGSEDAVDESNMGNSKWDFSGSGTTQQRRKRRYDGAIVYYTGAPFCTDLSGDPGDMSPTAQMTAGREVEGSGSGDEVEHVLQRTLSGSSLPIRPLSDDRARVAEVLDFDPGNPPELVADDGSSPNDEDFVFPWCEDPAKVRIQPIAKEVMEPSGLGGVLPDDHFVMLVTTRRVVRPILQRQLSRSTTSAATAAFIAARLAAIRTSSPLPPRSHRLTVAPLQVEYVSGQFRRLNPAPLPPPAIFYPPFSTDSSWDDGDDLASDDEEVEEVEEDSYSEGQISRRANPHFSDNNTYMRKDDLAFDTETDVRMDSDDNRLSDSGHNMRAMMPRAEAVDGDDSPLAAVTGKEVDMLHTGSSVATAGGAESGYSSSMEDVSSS

[2] = molecular target: T2, FRQ Δ564–603, V5H6-tagged (Neurospora crassa) (UniProt P19970); test: as above
T2 sequence: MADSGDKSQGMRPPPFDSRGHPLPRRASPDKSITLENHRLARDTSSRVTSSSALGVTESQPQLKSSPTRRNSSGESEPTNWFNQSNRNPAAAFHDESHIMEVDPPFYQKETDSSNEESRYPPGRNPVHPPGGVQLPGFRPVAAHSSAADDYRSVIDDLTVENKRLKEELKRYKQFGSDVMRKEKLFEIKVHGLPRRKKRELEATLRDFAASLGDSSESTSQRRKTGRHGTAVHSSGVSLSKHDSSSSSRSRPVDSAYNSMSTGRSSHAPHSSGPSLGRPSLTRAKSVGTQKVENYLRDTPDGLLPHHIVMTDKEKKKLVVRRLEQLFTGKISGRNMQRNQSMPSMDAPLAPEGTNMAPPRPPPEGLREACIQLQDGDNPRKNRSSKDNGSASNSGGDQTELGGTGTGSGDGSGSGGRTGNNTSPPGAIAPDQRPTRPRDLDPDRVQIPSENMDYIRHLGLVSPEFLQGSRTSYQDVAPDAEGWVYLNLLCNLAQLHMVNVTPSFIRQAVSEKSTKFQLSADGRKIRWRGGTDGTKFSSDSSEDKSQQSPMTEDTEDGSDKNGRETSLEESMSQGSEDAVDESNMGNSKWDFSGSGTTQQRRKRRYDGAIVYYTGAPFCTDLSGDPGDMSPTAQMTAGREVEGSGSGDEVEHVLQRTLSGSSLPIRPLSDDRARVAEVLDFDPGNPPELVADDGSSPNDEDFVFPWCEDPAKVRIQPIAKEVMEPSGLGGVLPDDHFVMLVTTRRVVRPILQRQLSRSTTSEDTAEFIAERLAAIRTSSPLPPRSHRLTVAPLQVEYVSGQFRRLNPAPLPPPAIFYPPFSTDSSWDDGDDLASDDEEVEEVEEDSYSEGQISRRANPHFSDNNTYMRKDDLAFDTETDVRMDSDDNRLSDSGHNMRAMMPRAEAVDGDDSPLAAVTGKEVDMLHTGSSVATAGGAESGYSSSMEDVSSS

- binding [1]: binds
- binding [2]: binds weakly
Substance: White Collar-1 (WC-1) (from UniProt Q01371 1-1167)
